Laboratory results reported in the RNAGym collection of RNA variant scans (doi:10.7554/elife.90254).
Read counts are not given, so values of variants with three or more changes are uncertain.

B1: OR4K15 (parent)
chain: GUUAACGGUCAUAGGCCAUGGAAACUAGGAGCACCAUUUCGCUGCCAGUGAAGAAAUGAACAAAGAAAAUCUGGGCCAGGCAGGCAUCAAAAGAAAUAGUCUUGCGCUCAACCAGAAAGUCUGUAAUCAUUUUAAGGGUA

Variants of: B1
Experiment: self-cleavage, relative activity (ratio to wild type); higher = more cleavage; in vitro, sequencing; the parent is a self-cleaving ribozyme
A24G A56U A126G gave a self-cleavage of 0.25. Work on U26A C40A U43C A116G yielded a self-cleavage of 0.97. A24G G48A U72C G75A U132C showed a self-cleavage of 0.25. In the case of A24G U37C U43C A69G, the self-cleavage is reported as 2.22. A24G G50U A51G gave a self-cleavage of 1.06. For A24G A118G A126G, the self-cleavage was 0.49. A27G A52G C61U C107U A118G U122C gave a self-cleavage of 0.01. Work on C25U A52G A62G A125G yielded a self-cleavage of 1.35. In the case of U26A A66U A117G U120C C121U, the self-cleavage is reported as 1.71. For A24U U37C G44A A52U A64G U97C, the self-cleavage was 1.81. Work on U26A A27G U37C A116G yielded a self-cleavage of 0.42. A24U A59G A68G A114G gave a self-cleavage of 0.43. Work on C25A A67C A117G U132C yielded a self-cleavage of 1.95. For A24G A114G A129U, the self-cleavage was 0.08. Work on A24U U38C U97C yielded a self-cleavage of 2.12. With A24G U49C A117G U131C the self-cleavage was 1.47. In the case of A24U U39C A78C C128A, the self-cleavage is reported as 0.15. Work on U26C U43A A51G U102C yielded a self-cleavage of 1.74. U26C U49G A59G A62G U139C showed a self-cleavage of 0.9. Work on A24G U26C A47U U103C yielded a self-cleavage of 0.49. Work on A24G U38A A82G U102C yielded a self-cleavage of 0.51. With U26A A67G U122C the self-cleavage was 0.65. U26C A66G A96U U108C U127C gave a self-cleavage of 0.01. For A24G A111G C113A, the self-cleavage was 0.01. For U26C A63G A110G A126G U131C U139C, the self-cleavage was 0.1. U26C A27U U37C A114G showed a self-cleavage of 0.46. With U26C A63G A96G the self-cleavage was 2. U26C U72G A90G A111U showed a self-cleavage of 0.03. Work on A27G U43G A96G yielded a self-cleavage of 1.39. A24G A54G A95G gave a self-cleavage of 1.83. U26C A117G U120C showed a self-cleavage of 0.48. With U26C A56G U72C A94G U103C the self-cleavage was 0.13. A27G A64G A110G A129C U131C gave a self-cleavage of 0.03. In the case of A24G U103C U108C A110G U127A, the self-cleavage is reported as 0.02. In the case of U26C A51U A82U, the self-cleavage is reported as 0.27. Work on A24G A116U A118G yielded a self-cleavage of 0.07. U26C U37C U108C U133A gave a self-cleavage of 0.02. Variant A27G U37C A59G A96G U100C U122C has a self-cleavage of 1.69. For A27G A68G A116G U131C, the self-cleavage was 0.91. For A24G A55G A90G, the self-cleavage was 0.32. A27G A54G A60C A64C showed a self-cleavage of 0.9. In the case of A27G A60G A82U A118G, the self-cleavage is reported as 0.09. Variant A27G A82C A92G has a self-cleavage of 0.16. In the case of U26C U39C A55U U57C, the self-cleavage is reported as 1.5. For U26A A90G U97C, the self-cleavage was 1.02. Work on A24G G29A A59G G106A A111G yielded a self-cleavage of 0.02. U26C A51G A116C U139C showed a self-cleavage of 0.02. A27G A33C A52G gave a self-cleavage of 0.47. For A24G A66G A117G, the self-cleavage was 1.82. Work on A27G A60G A82U A111G A135G yielded a self-cleavage of 0. A27G A94G A125G showed a self-cleavage of 0.72. U26C A30G A47G showed a self-cleavage of 0.07. A24U A51G A62U A63G A116G U127C showed a self-cleavage of 0.4. For U26C A33U A55C U120C U139A, the self-cleavage was 0.96. For A24U U39C A52C, the self-cleavage was 0.82. With U26C U38A A62G U87C A117U U122C the self-cleavage was 0.29. A24G U72C U127C A140G showed a self-cleavage of 0.12. With A24G A67C A129G the self-cleavage was 1.09. For U26A A96G U139A, the self-cleavage was 2.05. For U26A A36G U49C G93A, the self-cleavage was 1.75. With A27G A67G G80A U102C the self-cleavage was 0.69. For A27G G123A U133A, the self-cleavage was 0.85. U26C U120C U127C showed a self-cleavage of 0.48. In the case of A24G A54G U108C, the self-cleavage is reported as 0.07. With A24G U38C A90G A94U the self-cleavage was 0.87. In the case of U26C A30U U38A A54G A69G, the self-cleavage is reported as 1.14. A24G A64G A116G A118U gave a self-cleavage of 0.25. With U26C A59G A86G U87C A91G A134U the self-cleavage was 0.23. A24G A94G U124C gave a self-cleavage of 1.35. In the case of A27G A67G A126G, the self-cleavage is reported as 0.98. A24G A67U A111G U132C showed a self-cleavage of 0.02. A24U A63G A67G showed a self-cleavage of 1.88. In the case of U26C U120C U122A, the self-cleavage is reported as 1.2. With A24G U87A A94G the self-cleavage was 1.91. A27G C32U U39A A52G A56G A111G A125U gave a self-cleavage of 0.05. In the case of U26C A30G A126G, the self-cleavage is reported as 1.03. In the case of A24G A114G U120C, the self-cleavage is reported as 0.17. In the case of A24G A126G U131C, the self-cleavage is reported as 0.67. A24G A62G A64G U87C A116G gave a self-cleavage of 0.78. With A24G G83U A86G the self-cleavage was 0.61. Work on A24G A69G A91G yielded a self-cleavage of 0.55. Variant U26C U70C U87C A98U A111G has a self-cleavage of 0.01. Variant U26C A52U U131C has a self-cleavage of 1.41. In the case of A27G A62G A140U, the self-cleavage is reported as 1.02. For U26A A92U U102C U132C, the self-cleavage was 2.27. For A24U A117C U130C, the self-cleavage was 0.26. For U26C A91G A98G, the self-cleavage was 0.62. For A27G U39C A56G A66G U127C U139A, the self-cleavage was 0.34. For A27G C34U U70C U108C A117G, the self-cleavage was 0. With C25U A27G A47G the self-cleavage was 1.06. For A24G U37C A51G A67G G75A, the self-cleavage was 0.12. In the case of A24U U43C A47G A95G, the self-cleavage is reported as 1.76. For A24G A54G U122C, the self-cleavage was 1.52. U26C A60G U72C U103C A110U U132C G138A gave a self-cleavage of 0.1. Variant U26C U39A A82G A111G has a self-cleavage of 0.05. C25U A56G U102A showed a self-cleavage of 0.73. Variant U26A A27G A52U A94G A126G has a self-cleavage of 1.38. A27G A52U A116G U131C gave a self-cleavage of 0.56. Work on U26A A51G A67G A140G yielded a self-cleavage of 1. In the case of A24U A56G A78G A91G U130C, the self-cleavage is reported as 0.09. For A27G U57C A59U A134G, the self-cleavage was 1.18. With C25U A60G U108G U127C the self-cleavage was 0.01. In the case of A27G A56G A67G A69U A129G, the self-cleavage is reported as 1.11. Variant A27G A111U A118G has a self-cleavage of 0.07. For A24G U49C A59G A67G G84A U108C U132C, the self-cleavage was 0. With A24G U49A A69G A94U the self-cleavage was 0.96. A24G U49C A59U A69G G83A U100C showed a self-cleavage of 0.67. Work on A24G A54G U72A A94G U132C yielded a self-cleavage of 0.31. A24U A27G U120C U133C G138A gave a self-cleavage of 1.89. A27G C42U U87C showed a self-cleavage of 0.94. A27G A60U A78G A95U U97C A111G gave a self-cleavage of 0.01. In the case of U26A A64G A78G A90G A116G, the self-cleavage is reported as 0.06. Variant A24U A33G U38A A78U has a self-cleavage of 0.09. U26C U43A A110G A134G gave a self-cleavage of 0.15. With A24G A89G A94G the self-cleavage was 0.88. With C25A C32A A47G A89G the self-cleavage was 0.18. Work on A24G A55G A59G A60C A82U U103C U133C yielded a self-cleavage of 0.05. With U26A A51G A94G the self-cleavage was 1.73. For A24G C40A A89G A92G U127C, the self-cleavage was 1.18. For A24U U57C A114U, the self-cleavage was 0.02. In the case of C25U U102C U120C U139C, the self-cleavage is reported as 1.19. Variant C25U A69G A96G has a self-cleavage of 1.67. Work on A24G U37C U127C U133C yielded a self-cleavage of 1.67. In the case of A27G A51U A92G A98G U133G, the self-cleavage is reported as 0.87. For A24G U43C A89G, the self-cleavage was 1.6. With A24G A54G A86G the self-cleavage was 1.48. In the case of A24G U57A A63G U72G, the self-cleavage is reported as 0.38. U26C A69U A118U U132C showed a self-cleavage of 0.94. Variant A24G U38C A95G has a self-cleavage of 2.02. Variant U26C A47U A111G has a self-cleavage of 0.01. C25G C61U A116G gave a self-cleavage of 0.88. For U26C U70C U102C A110G, the self-cleavage was 0.06. For U26C A30G A52G A126G, the self-cleavage was 0.44. A27G A33G A86G A125G gave a self-cleavage of 0.56. Work on C25U C77U G93U yielded a self-cleavage of 1.29. In the case of U26C A95G U124C, the self-cleavage is reported as 1.23. Work on A24G U38C A67G A98U A125G yielded a self-cleavage of 1.05. With U26A A52G A68G the self-cleavage was 1.63. A24G A69U U87C A95G U102A gave a self-cleavage of 1.47. In the case of A27G A52G A56C A78G, the self-cleavage is reported as 0.15. Work on A24G U38C A86G yielded a self-cleavage of 1.36. A27G A95G A98G gave a self-cleavage of 1.56. In the case of A24G C81U U132C, the self-cleavage is reported as 0.74. Work on A24G U37C U43C A63G A66G A96G C105U yielded a self-cleavage of 0.11. Work on U26C A54U A56G A67G G99A yielded a self-cleavage of 0.14. A24G A67G A117G U131C showed a self-cleavage of 1.45. For U26C A60G A69G U72C A110G, the self-cleavage was 0.15. A27G U57C U72C A96U gave a self-cleavage of 0.24. For A24G U72C A89G A92G, the self-cleavage was 0.25. With U26A A69G A111G the self-cleavage was 0.02. Work on U26C U102C U132C yielded a self-cleavage of 2.2. For A24U A52U A62G, the self-cleavage was 1.76. With A24G A59G U108C the self-cleavage was 0.02. Variant A24G G58U U132C has a self-cleavage of 1.99. In the case of U26A U39A A62U, the self-cleavage is reported as 1.25. U26C U102C A129U gave a self-cleavage of 1.09. A27G U43A A111G gave a self-cleavage of 0. Work on A24U A59G A90G yielded a self-cleavage of 0.92. U26C U70G A91G showed a self-cleavage of 0.37. Work on C25U A68G A82G A125G yielded a self-cleavage of 0.14. Work on U26C A78G U124C yielded a self-cleavage of 0.17. In the case of U26A U49C A140G, the self-cleavage is reported as 1.63. For A24U A64C A94U A98U U108C A117G, the self-cleavage was 0. In the case of A24G U87C U103C A117G, the self-cleavage is reported as 0.98. For U26C A59G A82U U100C U139A, the self-cleavage was 0.45. With A24G G41A U43C A96G A117G the self-cleavage was 1.49. Work on U26C U43C U102C yielded a self-cleavage of 1.11.
